Assay results reported in PMC4669756.
No constants are given. Whether binding was seen depends on the method and setting. In cells and extracts the contact can be indirect. Some results given as binding are weak or reduced against the parent protein; the word gives no strength. For some of these results: Tags and fused reporters may be left off the sequences shown.

Amino acid sequences for entries named in this document (tags omitted). A change or cut given only in a name is not applied to a line headed by its entry.
UniProt P07355: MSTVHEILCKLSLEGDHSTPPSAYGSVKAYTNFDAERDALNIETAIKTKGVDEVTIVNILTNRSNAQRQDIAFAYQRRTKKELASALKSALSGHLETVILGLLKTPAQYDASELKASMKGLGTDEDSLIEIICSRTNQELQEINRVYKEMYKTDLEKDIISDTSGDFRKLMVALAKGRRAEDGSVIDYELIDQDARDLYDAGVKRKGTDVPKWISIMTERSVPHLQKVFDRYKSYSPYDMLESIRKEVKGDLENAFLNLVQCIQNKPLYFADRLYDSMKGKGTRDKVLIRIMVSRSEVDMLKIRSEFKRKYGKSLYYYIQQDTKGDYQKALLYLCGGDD

Experiments:
[1] = target: His/Xpress-tagged p50 subunit of NF-κB (UniProt P19838); assay: pull-down; His/Xpress-p50 and cFLAG-annexin cotransfected into HEK-293; lysate in Ni-NTA lysis buffer (20 mM NaH2PO4, 300 mM NaCl, 5 mM imidazole, 0.05% Tween 20); Ni-NTA-agarose beads, 4 °C overnight; western blot
[2] = target: endogenous p50 subunit of NF-κB of Mia-Paca2 cells (human (endogenous in Mia-Paca2)) (UniProt P19838); assay: co-IP; endogenous proteins, Mia-Paca2 extracts; IP with anti-p50 rabbit polyclonal IgG on protein A/G agarose, 4 °C overnight, lysis buffer with 1 mM EDTA and 1% NP-40; blot with anti-ANXA2
[3] = target: GST-tagged p50 subunit of NF-κB (UniProt P19838); assay: pull-down; GST-p50 and cFLAG-ANXA2 cotransfected into HEK-293; NP-40 lysis buffer (137 mM NaCl, 1 mM EDTA, 10% glycerol, 1% NP-40); Glutathione HiCap Matrix, 4 °C overnight; western blot
[4] = target: endogenous p50 subunit of NF-κB of HeLa cells (human (endogenous in HeLa)) (UniProt P19838); assay: co-IP; endogenous proteins, HeLa extracts, cells with or without 10 ng/ml TNF-α for the indicated time; IP with anti-p50 rabbit polyclonal IgG on protein A/G agarose, 4 °C overnight, lysis buffer with 1 mM EDTA and 1% NP-40; blot with anti-ANXA2
[5] = target: T1, His/Xpress-tagged p50 subunit of NF-κB, P19838; assay: pull-down; His/Xpress-p50 and cFLAG-annexin cotransfected into HEK-293; lysate in Ni-NTA lysis buffer (20 mM NaH2PO4, 300 mM NaCl, 5 mM imidazole, 0.05% Tween 20); Ni-NTA-agarose beads, 4 °C overnight; western blot; settings: remark: other sources report otherwise
T1 chain: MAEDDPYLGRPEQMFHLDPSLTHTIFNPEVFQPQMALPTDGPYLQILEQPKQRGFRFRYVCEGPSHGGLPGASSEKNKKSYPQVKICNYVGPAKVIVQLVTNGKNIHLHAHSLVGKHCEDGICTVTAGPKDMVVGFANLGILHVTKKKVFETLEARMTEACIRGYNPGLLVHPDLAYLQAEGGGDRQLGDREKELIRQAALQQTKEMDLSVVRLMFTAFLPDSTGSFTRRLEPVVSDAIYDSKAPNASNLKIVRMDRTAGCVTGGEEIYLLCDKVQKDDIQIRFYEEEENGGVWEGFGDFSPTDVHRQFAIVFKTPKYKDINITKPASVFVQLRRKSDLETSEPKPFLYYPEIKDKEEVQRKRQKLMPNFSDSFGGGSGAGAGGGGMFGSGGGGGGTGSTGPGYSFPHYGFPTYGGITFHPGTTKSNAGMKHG

Molecule: N-terminal deletion mutant of ANXA2 (lacking amino acids 1-23) (from UniProt P07355 24-339) (domain or fragment)
- binding [1]: no binding

Molecule: endogenous annexin A2 of Mia-Paca2 cells (from UniProt P07355 1-339)
- binding [2]: binds

Molecule: C-terminal FLAG-tagged human annexin A2 (wild type) (from UniProt P07355 1-339)
- binding [3]: binds
- binding [1]: binds

Molecule: endogenous annexin A2 of HeLa cells (from UniProt P07355 1-339)
- binding [4]: binds

B1: C-terminal FLAG-tagged human annexin A4, P09525 1-319 (protein)
chain: MATKGGTVKAASGFNAMEDAQTLRKAMKGLGTDEDAIISVLAYRNTAQRQEIRTAYKSTIGRDLIDDLKSELSGNFEQVIVGMMTPTVLYDVQELRRAMKGAGTDEGCLIEILASRTPEEIRRISQTYQQQYGRSLEDDIRSDTSFMFQRVLVSLSAGGRDEGNYLDDALVRQDAQDLYEAGEKKWGTDEVKFLTVLCSRNRNHLLHVFDEYKRISQKDIEQSIKSETSGSFEDALLAIVKCMRNKSAYFAEKLYKSMKGLGTDDNTLIRVMVSRAEIDMLDIRAHFKRLYGKSLYSFIKGDTSGDYRKVLLVLCGGDD
- binding [5]: binds

B2: C-terminal FLAG-tagged human annexin A1 (protein, UniProt P04083 1-346)
chain: MAMVSEFLKQAWFIENEEQEYVQTVKSSKGGPGSAVSPYPTFNPSSDVAALHKAIMVKGVDEATIIDILTKRNNAQRQQIKAAYLQETGKPLDETLKKALTGHLEEVVLALLKTPAQFDADELRAAMKGLGTDEDTLIEILASRTNKEIRDINRVYREELKRDLAKDITSDTSGDFRNALLSLAKGDRSEDFGVNEDLADSDARALYEAGERRKGTDVNVFNTILTTRSYPQLRRVFQKYTKYSKHDMNKVLDLELKGDIEKCLTAIVKCATSKPAFFAEKLHQAMKGVGTRHKALIRIMVSRSEIDMNDIKAFYQKMYGISLCQAILDETKGDYEKILVALCGGN
- binding [1]: no binding
